One data set relates to T1, peptide RRREEESGGG
T1 sequence: RRREEESGGG

Another data set deals with T2, peptide RRREEESEEE
T2 sequence: RRREEESEEE

Take “G protein-coupled receptor kinase GRK5 (human) (sequence not shown)”: the “rhodopsin phosphorylation in the presence or absence of 100 nM G protein βγ subunits” value in the data set with G protein βγ subunits is “the ability of GRK5 to phosphorylate rhodopsin is not affected by G protein βγ subunits”. For the same sequence, the peptide phosphorylation result with peptide RRREEESGGG and with peptide RRREEESEEE was “These peptides are not phosphorylated by GRK5” throughout.

Values taken from patent US20020034767.
